Test results: publication PMC7835222
Results are given in words; binding and its absence hold for the method and conditions named. Binding seen in cells or lysates may run through a third protein. Some results given as binding are weak or reduced against the parent protein; the word gives no strength. For some assays here: Where a sequence is shown, tags or fusion partners need not be part of it.

Sequences of proteins named here, by UniProt entry; tags and fusion partners are left off. A change or cut given only in a name is not applied to a line headed by its entry. Residues count along the entry.
UniProt O60678: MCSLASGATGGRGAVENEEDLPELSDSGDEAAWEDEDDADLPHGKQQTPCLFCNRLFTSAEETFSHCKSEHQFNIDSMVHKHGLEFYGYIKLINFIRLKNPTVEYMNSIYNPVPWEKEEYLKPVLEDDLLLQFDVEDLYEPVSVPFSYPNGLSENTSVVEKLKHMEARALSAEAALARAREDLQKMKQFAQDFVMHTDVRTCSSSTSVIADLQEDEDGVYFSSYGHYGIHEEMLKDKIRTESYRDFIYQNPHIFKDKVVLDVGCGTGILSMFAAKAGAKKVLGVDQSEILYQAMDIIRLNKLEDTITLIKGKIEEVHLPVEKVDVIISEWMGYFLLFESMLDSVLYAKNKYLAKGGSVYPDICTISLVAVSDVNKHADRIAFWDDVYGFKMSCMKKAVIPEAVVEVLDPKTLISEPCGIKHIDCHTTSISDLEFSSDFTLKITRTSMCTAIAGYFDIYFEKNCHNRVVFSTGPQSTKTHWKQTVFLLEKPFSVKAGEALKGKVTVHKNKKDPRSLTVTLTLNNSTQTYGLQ
UniProt O14744: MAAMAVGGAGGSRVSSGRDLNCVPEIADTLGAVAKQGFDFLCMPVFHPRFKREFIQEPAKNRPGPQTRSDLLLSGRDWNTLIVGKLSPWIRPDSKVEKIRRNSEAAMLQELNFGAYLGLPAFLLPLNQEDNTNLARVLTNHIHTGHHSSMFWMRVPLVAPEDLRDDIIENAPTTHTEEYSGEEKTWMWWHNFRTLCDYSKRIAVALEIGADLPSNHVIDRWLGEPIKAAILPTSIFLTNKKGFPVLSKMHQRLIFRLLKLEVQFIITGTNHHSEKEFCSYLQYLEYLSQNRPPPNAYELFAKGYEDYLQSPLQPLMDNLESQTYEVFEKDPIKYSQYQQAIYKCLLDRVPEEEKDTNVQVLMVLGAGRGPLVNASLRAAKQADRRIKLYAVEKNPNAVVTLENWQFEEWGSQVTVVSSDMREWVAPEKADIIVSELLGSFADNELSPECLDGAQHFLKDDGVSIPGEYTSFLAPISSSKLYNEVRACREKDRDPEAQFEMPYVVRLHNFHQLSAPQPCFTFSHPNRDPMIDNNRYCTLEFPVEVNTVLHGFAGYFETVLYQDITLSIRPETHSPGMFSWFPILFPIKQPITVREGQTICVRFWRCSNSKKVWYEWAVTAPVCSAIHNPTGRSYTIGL
UniProt Q96LA8: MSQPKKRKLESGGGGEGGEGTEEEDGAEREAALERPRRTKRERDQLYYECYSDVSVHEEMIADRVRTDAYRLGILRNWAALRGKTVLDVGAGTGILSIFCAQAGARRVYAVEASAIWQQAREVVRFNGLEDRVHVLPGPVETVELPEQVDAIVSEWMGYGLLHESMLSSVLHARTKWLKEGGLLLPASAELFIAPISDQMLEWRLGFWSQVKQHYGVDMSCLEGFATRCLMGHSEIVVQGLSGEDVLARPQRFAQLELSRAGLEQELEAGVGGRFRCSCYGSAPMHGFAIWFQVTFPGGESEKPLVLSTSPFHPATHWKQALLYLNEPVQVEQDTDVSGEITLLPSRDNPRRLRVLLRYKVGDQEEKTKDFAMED
UniProt P05091, residues 18-517: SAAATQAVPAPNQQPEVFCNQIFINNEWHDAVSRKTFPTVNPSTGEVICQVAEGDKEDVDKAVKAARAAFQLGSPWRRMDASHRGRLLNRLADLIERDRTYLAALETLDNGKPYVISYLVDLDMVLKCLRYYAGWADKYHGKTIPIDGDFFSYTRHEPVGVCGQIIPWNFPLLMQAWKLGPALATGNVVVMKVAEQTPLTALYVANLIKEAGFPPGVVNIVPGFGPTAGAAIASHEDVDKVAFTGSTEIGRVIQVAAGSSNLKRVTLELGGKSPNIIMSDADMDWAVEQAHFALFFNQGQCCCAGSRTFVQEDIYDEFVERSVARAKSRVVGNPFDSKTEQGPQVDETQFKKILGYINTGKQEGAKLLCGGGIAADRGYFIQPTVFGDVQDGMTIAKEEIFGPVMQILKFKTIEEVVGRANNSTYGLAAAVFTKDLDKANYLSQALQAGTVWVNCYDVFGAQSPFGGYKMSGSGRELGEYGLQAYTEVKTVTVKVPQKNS

What was measured:
[1] = biological target: T1, GST-tagged full-length ALDH1A1 (pGEX-AL-FL) (human) (UniProt P00352); assay: pull-down; 15 µg GST-tagged ALDH1A1 (full length or truncated) on Glutathione Sepharose, lysates of HEK293 cells overexpressing GFP-tagged PRMT proteins; 4 °C, 10 h; blot with GFP antibody; only the target purified
T1 sequence: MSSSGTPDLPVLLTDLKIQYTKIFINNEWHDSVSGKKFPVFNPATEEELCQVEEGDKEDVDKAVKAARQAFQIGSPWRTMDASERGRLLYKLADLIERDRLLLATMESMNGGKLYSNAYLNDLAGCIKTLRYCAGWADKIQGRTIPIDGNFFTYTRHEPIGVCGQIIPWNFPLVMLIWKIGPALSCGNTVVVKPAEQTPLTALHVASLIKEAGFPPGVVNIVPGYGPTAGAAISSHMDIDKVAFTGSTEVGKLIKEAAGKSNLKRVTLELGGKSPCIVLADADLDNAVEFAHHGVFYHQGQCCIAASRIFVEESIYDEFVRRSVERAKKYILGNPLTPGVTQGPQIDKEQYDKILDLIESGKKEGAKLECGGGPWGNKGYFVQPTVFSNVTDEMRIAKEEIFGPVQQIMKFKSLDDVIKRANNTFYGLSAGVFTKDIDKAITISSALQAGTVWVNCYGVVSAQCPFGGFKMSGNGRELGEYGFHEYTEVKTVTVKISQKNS

[2] = biological target: GST-tagged PRMT3 full-length protein (pGEX-PR-FL) (human) (UniProt O60678); assay: pull-down; 15 µg GST-tagged PRMT3 on Glutathione Sepharose, lysates of HEK293 cells overexpressing HA-tagged ALDH members; 4 °C, 10 h; blot with HA antibody; only the target purified
[3] = biological target: T2, GFP-tagged ALDH1A1 (pEGFP-AL-FL) (human) (UniProt P00352); assay: co-IP; HEK293 cells co-transfected; GFP-tagged protein precipitated with GFP Trap A beads, 4 °C, 10 h; 10 mM Tris pH 7.5, 150 mM NaCl, 0.5 mM EDTA, 0.1% NP-40; blot with Myc (forward) or HA (reverse) antibody
T2 sequence: T1 sequence

Row | Substance | binding [1] | also measured
1 | GFP-PRMT5 (pEGFP-PRMT5) (from UniProt O14744 1-637) (enzyme) | no binding | 
2 | GFP-PRMT6 (pEGFP-PRMT6) (from UniProt Q96LA8 1-375) (enzyme) | binds weakly | 
3 | GFP-tagged PRMT3 full-length protein (pEGFP-PR-FL) (from UniProt O60678-1 1-531) (enzyme) | binds | 
4 | HA-ALDH2 (pCDNA4-HA-ALDH2) (from UniProt P05091 18-517) (enzyme) |  | binding [2]: no binding
5 | HA-tagged PRMT3 (pCDNA4-HA-PR-FL) (from UniProt O60678-1 1-531) (enzyme) |  | binding [3]: binds
